Experimental data: PubChem BioAssay AID1030 (National Center for Advancing Translational Sciences (NCATS), 2008)
Out of some 220,000 compounds screened, about 16,000 (7.3%) were called active. The shares of active, inactive and inconclusive entries below differ from those in the screen. Calls follow the shape of the dose curve; as a rule, active = well fitted inhibition curve with a large enough effect (not every such curve was filed as active); inconclusive = small, poorly fitted or top-dose-only effect, or another doubt; inactive = no such curve, though single readings can be large or run the other way. Potencies of inconclusive entries are left out as doubtful fits.

Target: Aldehyde dehydrogenase 1A1 (Homo sapiens) (UniProt P00352)
Test: qHTS Assay for Inhibitors of Aldehyde Dehydrogenase 1 (ALDH1A1);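 as to activity, negative = inhibition: plate controls were no enzyme wells and a reference inhibitor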
Conditions: Purified ALDH1A1, NADH fluorescence, propionaldehyde substrate; series mostly up to 75.3 µM
Potency is read from the fitted curve at half-maximal effect; tags tell the direction and shape of the fitted curve.

Chain of UniProt P00352 (P00352 whole entry, looked up): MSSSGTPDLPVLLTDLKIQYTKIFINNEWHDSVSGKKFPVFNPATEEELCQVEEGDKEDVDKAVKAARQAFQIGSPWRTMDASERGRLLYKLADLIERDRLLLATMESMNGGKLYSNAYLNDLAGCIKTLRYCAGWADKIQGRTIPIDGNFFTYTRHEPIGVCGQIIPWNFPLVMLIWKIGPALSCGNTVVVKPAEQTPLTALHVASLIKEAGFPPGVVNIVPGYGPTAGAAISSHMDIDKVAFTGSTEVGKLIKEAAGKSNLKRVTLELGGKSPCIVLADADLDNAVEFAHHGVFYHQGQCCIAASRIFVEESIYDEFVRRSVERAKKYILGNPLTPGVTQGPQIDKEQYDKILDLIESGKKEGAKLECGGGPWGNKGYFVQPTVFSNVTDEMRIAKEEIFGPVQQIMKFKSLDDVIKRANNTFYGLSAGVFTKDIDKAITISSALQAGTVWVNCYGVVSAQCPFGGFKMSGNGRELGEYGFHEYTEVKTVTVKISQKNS

| Structure (SMILES) | Potency | activity, negative = inhibition |
| --- | --- | --- |
| CCCCCCCCCCCC(=O)c1c(O)cccc1O | inconclusive [inhibitor, single point] |  |
| COc1ccc(C2CC(C(F)(F)F)n3ncc(C(=O)NCc4cccnc4)c3N2)cc1OC (centres undefined) | inactive |  |
| O=c1c2c3nc4ccccc4nc3n(/N=C/c3ccco3)c2ncn1CCC1=CCCCC1 | active: 25.1 µM |  |
| CO[C@@H]1/C=C\CC(=O)N[C@@H](C)C(=O)OC[C@@H](OC)[C@H](C)/C=C\CC(=O)OC[C@H]1C |  | inactive: 20.3% [at 13.5 µM] |
| O=C(Oc1ccc(OC(=O)c2ccco2)c(S(=O)(=O)c2ccc(Br)cc2)c1)c1ccco1 | inconclusive [inhibitor, partial curve] |  |
| Cn1c(=O)c(C(=O)CCl)c(N)n(Cc2ccccc2)c1=O | active: 7.08 µM |  |
| Cc1ccc(S(=O)(=O)c2nc(Nc3ccccc3)sc2Cl)cc1 | inactive |  |
| Cc1ccccc1C(=O)NC(=S)Nc1ccc(N2CCOCC2)cc1 | inconclusive [inhibitor, single point] |  |
| O=C(NCC1CCCO1)/C(=C/c1cn(-c2ccccc2)nc1-c1cccnc1)NC(=O)c1ccccc1 (centres undefined) | active: 0.562 µM |  |
| Nc1cc(N)nc(SCC(=O)N2CCCCC2)n1 | inactive |  |
| CCOC(=O)CNC(=O)CSc1nc(-c2ccc(C)cc2)ns1 | inconclusive [inhibitor, single point] |  |
| Cc1cc(C)c2c(-n3cccc3)c(C(=O)NNS(=O)(=O)c3ccc(Br)cc3)sc2n1 | active: 0.0891 µM |  |
| COc1ccc(CCNc2nc3ccccc3n3nnnc23)cc1OC | inactive |  |
| CC(C)CNC(=O)c1ccccc1NC(=O)c1ccccc1N(C)S(C)(=O)=O | inconclusive [inhibitor, single point] |  |
| CS(=O)(=O)N1N=C(c2ccco2)CC1c1ccc(Cl)cc1Cl (centres undefined) | inconclusive [inhibitor, single point] |  |
| O=c1cc2c(nn1Cc1ccc(Cl)cc1)-c1ccccc1CC2 | inconclusive [inhibitor, partial curve] |  |
| Cc1ccc(C(=O)N/N=C\c2ccc(-c3ccc(Cl)cc3)o2)cn1 | inactive |  |
| Cc1sc2ncn(CC(=O)OC(C)C(=O)NC(C)(C)C)c(=O)c2c1C (centres undefined) | inactive |  |
| CCCN(CC1CC1)C(=S)NC(=O)c1ccc(S(=O)(=O)N2CCOCC2)cc1 | inconclusive [inhibitor, single point] |  |
| O=C1C(NS(=O)(=O)c2cccs2)=C(N2CCN(c3cccc(Cl)c3)CC2)C(=O)c2ccccc21 | active: 3.16 µM |  |
| c1ccc2c(c1)CCN(c1nc3cc4c(cc3s1)OCO4)C2 | active: 25.1 µM |  |
| CCOc1cc(N2CCOCC2)c(OCC)cc1NC(=O)c1ccc(C)s1 | inconclusive [inhibitor, single point] |  |
| CC1=CC(=C(C#N)C#N)C=C(C)N1CCN1CCNCC1 | inconclusive [inhibitor, single point] |  |
| O=C(NCc1ccc(F)cc1)c1ccc(Br)o1 | inactive |  |
| COc1cc(C(=O)Nc2nc3ccc(C)cc3s2)ccc1OCc1c(C)noc1C | inconclusive [inhibitor, partial curve] |  |

| Structure (SMILES) | Potency | activity, negative = inhibition |
| --- | --- | --- |
| CC1CCCC(NC(=O)COC(=O)COc2ccc(Cl)cc2)C1C (centres undefined) | active: 1 µM |  |
| CCN1CCN(CC(O)COCC2COc3ccccc3O2)CC1 (centres undefined) | active: 28.2 µM |  |
| CCC(CC)NC(=O)COC(=O)c1ccc(NS(=O)(=O)c2ccc3c(c2)OCCO3)cc1 | inconclusive [inhibitor, partial curve] |  |
| CC(C)CN1CC(C(=O)O)CC1=O (centres undefined) | inactive |  |
| CC(=O)Oc1ccc(-c2ccc(C(=O)Nc3cccc(S(=O)(=O)N4CCOCC4)c3)cc2)cc1 | inconclusive [inhibitor, single point] |  |
| O=Cc1ccc(Oc2cccc(C(F)(F)F)c2)nc1 | inconclusive [inhibitor, single point] |  |
| O=C(NC(Nc1nc2ccc([N+](=O)[O-])cc2s1)(C(F)(F)F)C(F)(F)F)c1ccccc1Cl | inconclusive [inhibitor, single point] |  |
| O=C(NCc1ccccc1)N(Cc1cc2cc3c(cc2[nH]c1=O)OCO3)CC1CCCO1 (centres undefined) | inconclusive [inhibitor, partial curve] |  |
| Cc1ccc(Cl)cc1N1CCN(C(=O)c2ccc(CN3CCOCC3)cc2)CC1 | inactive |  |
| O=S(=O)(N/N=C/c1ccccc1F)c1ccccc1 | inactive |  |
| COc1ccc(/C=C\C(=O)CC(O)(c2ccccc2)C(F)(F)F)cc1 (centres undefined) | inconclusive [inhibitor, partial curve] |  |
| COc1cc2[nH]c(=S)nc(NCC3CCCO3)c2cc1OC (centres undefined) | inconclusive [inhibitor, single point] |  |
| Nc1ncnc2oc(-c3ccco3)c(-c3ccco3)c12 | inconclusive [inhibitor, partial curve] |  |
| N#Cc1ncc(C(F)(F)F)cc1Sc1ccccc1N | inconclusive [inhibitor, partial curve] |  |
| O=c1c2cn[nH]c2[nH]c(=S)n1-c1ccccc1 | inconclusive [inhibitor, single point] |  |
| Cc1[nH]c2ccccc2c1C(=O)COC(=O)c1c(-c2c(F)cccc2Cl)noc1C | inactive |  |
| O=C(c1ccccc1)c1c(O)nc(-c2ccccc2)n(-c2ccccc2)c1=O | inactive |  |
| N#CCCn1c(=O)c(-c2ccc(F)cc2)nc2cnc(N3CCOCC3)nc21 | inconclusive [inhibitor, single point] |  |
| Cn1c(/C(C#N)=C(\O)c2ccc([N+](=O)[O-])cc2)nc2ccccc21 | inactive |  |
| O=C(CCl)N(c1ccccc1)c1ccccc1 | active: 0.0447 µM |  |
| COc1cccc(C(=O)Nc2cccnc2)c1OC | inactive |  |
| C=CCOC(=O)C1=C(C)NC(SCC(=O)N(CC)CC)=C(C#N)C1c1ccco1 (centres undefined) | inconclusive [inhibitor, single point] |  |
| CN1CC[n+]2c(CN3C(=O)c4ccccc4C3=O)csc21 | inactive |  |
| COc1ccc2[nH]c(C)c(C(=O)CN3CCN(C/C=C/c4ccccc4)CC3)c2c1 | inconclusive [inhibitor, single point] |  |
